Experimental data from PubChem BioAssay AID1814 (Broad Institute, 2009).
In all, about 300,000 compounds went through this assay and about 22,000 (7.3%) were called active. The shares of active, inactive and inconclusive entries below differ from those in the screen. No stated cut-off is given here; in the data, active means activity score below about -60%; inconclusive means mostly about -28% to -61%; inactive means positive scores.

Assay: Activators via SNCA 5'UTR binding, MLPCN (AID 1814)
Settings: alpha-synuclein 5'UTR reporter, activators screen; stronger effect = lower value; tested at 7.5 µM

Activity score, inactive:
Cc1cc(C)c2cc(C#N)c(N3CCCN(C(=S)NCCCN(C)C)CC3)nc2c1 95.7%
CC1CC(C)(C)Nc2ccc(OC(=O)c3ccco3)cc21 (centres undefined) 70.3%
CN1CCN(c2ccc([N+](=O)[O-])cc2C(=O)c2ccc(Br)cc2)CC1 67.4%
CN(C)c1ccc(/C=C2\SC(=O)N(CCc3nnc(N)s3)C2=O)cc1 79.8%
CC1CCN(CCNC(=O)c2ccc3c(=O)n(Cc4ccc(Cl)cc4)c(=S)[nH]c3c2)CC1 98.1%
CCCCC(=O)Nc1ccc(C(=O)Nc2ccc(OC)cc2[N+](=O)[O-])cc1 60.6%
Cc1sc2ncnc(N/N=C/c3ccccc3O)c2c1C 106%
Cc1cccc(NC2=NC(C)(C)N=C(N)N2)c1 98.4%
CCc1ccccc1OCC(=O)Nc1nc(-c2cccnc2)cs1 70.2%
Cc1nn(C(C)(C)C)c(C)c1/C=N/OC(=O)Nc1ccc(Cl)cc1 94.2%
COc1ccc2c(c1)sc(N)[n+]2Cc1cc(C)cc2cccnc12 114%
CCC(=O)Nc1nc2ccccc2n1Cc1ccc(Cl)cc1 72%
CCOc1ccc(N/C=C/C(=O)c2ccccc2)c([N+](=O)[O-])c1 86.7%
COc1ccc(C2=Nn3c(nnc3-c3ccccn3)SC2)cc1OC 56.3%
COc1ccc(NC(=O)c2cc([N+](=O)[O-])ccc2O)cc1 85.1%
O=c1[nH]c(=O)n([C@H]2C[C@H](O)[C@@H](CO)O2)cc1F 80.2%
CCOc1ccc(C(=O)Nc2ccc3nc(N4CCN(CC)CC4)cc(C)c3c2)cc1 66.5%
COCCn1c(C)cc(C2=NNC(=NC3CC3)SC2)c1C 112%
COc1ccc(S(=O)(=O)N2c3cc(Cl)ccc3Oc3nc4ccccc4nc32)cc1 99.6%
Nc1ccc(-c2cc3ccccc3oc2=O)cc1 106%
Cc1cc(-c2ccc(C(C)C)c(S(=O)(=O)N3CCN(c4ccccc4)CC3)c2)on1 55.9%
O=C1OCCC1Sc1nnc(-c2ccc3c(c2)OCO3)o1 (centres undefined) 54.8%
Cc1ccnc(NS(=O)(=O)c2ccc(NC(=O)COc3ccccc3)cc2)n1 68.4%
CC1CCCCN1S(=O)(=O)c1ccc(C(=O)Nc2nnc(-c3cccs3)o2)cc1 (centres undefined) 89.9%
CC1CCCCC1NC(=O)Cn1nnc2ccccc2c1=O (centres undefined) 60.9%
Cc1onc(-c2ccccc2Cl)c1C(=O)N(Cc1ccc(N(C)C)cc1)C(C)C 73.1%

Activity score, inconclusive:
CCCn1nnc(NC(=O)c2ccc(F)cc2)n1 -55.7%
CCOC(=O)C1=C(O)C(Nc2nccs2)(C(F)(F)F)N=C1C (centres undefined) -22%
Cc1ccc2nc(Nc3nc(-c4ccccc4)cc(=O)[nH]3)nc(C)c2c1 -47.4%
Cc1ccc(NC(=S)c2ccc3ccccc3n2)c(C)c1 -41.2%
O=C(Nc1nc(-c2ccccc2Cl)cs1)c1cccnc1 -58.6%
COc1cc(SC)ccc1C(=O)NCCc1ccccc1 -58.2%
N#CC(Cc1ccccc1OC(F)F)c1nc2ccccc2[nH]1 (centres undefined) -41.4%
c1ccc(COc2ccc(CNCc3cccs3)cc2)cc1 -52.8%
COc1ccc(C2=CSC3=NNC4(CCCCC4)NN23)cc1 -56.6%
COc1ccc(-c2cn(-c3ccc(C)cc3)c(=O)n2CC(=O)Nc2ccc(OC)c(OC)c2)cc1 -48.4%
CC(=O)Nc1n[nH]c(-c2ccc(C)cc2)c1C -41.7%
CCOc1cc(CNc2ccc3cn[nH]c3c2)ccc1OC -45.5%
O=C(Cc1cccs1)N1CCN=C1SCc1ccc(Br)cc1 -60.8%
CC(C)(C)c1csc(Sc2ncccc2[N+](=O)[O-])n1 -56.1%
CCOC(=O)/C(C#N)=C/c1ccc(OCC(=O)Nc2ccc(C)c(C)c2)c(OC)c1 -54.5%
CC1CCCC(C)N1/N=C/c1ccc([N+](=O)[O-])cc1 (centres undefined) -57.2%
O=C(Nc1ccc(Br)cc1)N1CCCCCCC1 -60.3%
Cc1ccccc1Nc1nc(N)nc(CN(C)Cc2ccccc2Cl)n1 -45.5%
CCOC(=O)CCc1c(C)nc2cc(-c3ccc(Cl)cc3)[nH]n2c1=O -57.1%
Cc1cccc(NC(=S)NNC(=O)c2cccc([N+](=O)[O-])c2)c1 -42.7%
COc1ccc(C)c2sc(NC(=O)C3CC3)nc12 -56.2%
COc1ccc(N2C(=O)Cc3c2nc(N)c(C#N)c3N)cc1 -56.1%
Cc1cccc(N2C(=O)SC(SC(=Nc3ccccc3)Nc3ccccc3)C2=O)c1 (centres undefined) -58.4%
COc1cc(/C=C2\SC(=S)N(CCCCC(=O)O)C2=O)ccc1OS(=O)(=O)c1ccc(C)cc1 -58%
O=C(O)c1ccc(Nc2c3ccccc3nc3ccccc23)cc1 -51.8%
N#CC1=C(N)N(c2ccccc2)C2=C(C(=O)CCC2)C1c1ccccc1 (centres undefined) -48.8%
Cc1cnc(-c2nnc(N(C)C(=O)C3CCOC3)s2)cn1 (centres undefined) -50.8%
COc1cccc2sc3ccc(C#CC4(N)CCCCC4)cc3c(=O)c12 -59.8%
C=CC[n+]1c(C)csc1Nc1ccc(C(=O)O)cc1 -59.5%
O=[N+]([O-])c1ccc2nc(-c3ccccc3[N+](=O)[O-])[nH]c2c1 -58.6%
O=C(NCC(=O)N1CCCC(C(F)(F)F)C1)c1ccccc1F (centres undefined) -55.5%
Cc1ccc(/C=N/n2nnnc2N)cc1 -46.1%
CC1(C)CC(N2CCCC2)=CC(=[N+]2CCCCC2)C1 -56.3%
Cc1ccc(SCC(=O)Nc2cc([N+](=O)[O-])ccc2O)cc1 -52.2%
COc1ccc(N=Cc2c(OC)ccc3ccccc23)cc1 -35.4%
CCN(CC)CCCN(Cc1cc2cc3c(cc2[nH]c1=O)OCCO3)C(=O)Nc1ccc(F)cc1 -60.2%
Cc1ccc(SCC(=O)NC2CCCCCC2)cc1 -57.3%
Cn1nc(C(F)(F)F)c(C(=O)Nc2ccc(F)cc2F)c1Oc1cccc(Cl)c1 -30.3%
O=C(NC(=S)N1CCN(c2ccc(Cl)cc2[N+](=O)[O-])CC1)c1cccs1 -56.9%
CCNC(=O)COc1ccc2ccccc2c1 -55.5%
COc1ccc(CCNC(=O)c2ccc3c(c2)OCO3)cc1 -61.1%
CN(CC(=O)Nc1ccc(Cl)cc1)C(=O)CNC(=O)c1ccc2ccccc2c1 -55.3%
O=C(/C=C/c1ccccc1[N+](=O)[O-])NC1CCCC1 -58.1%
COc1ccccc1C1C([N+](=O)[O-])=CC([N+](=O)[O-])=CN1C (centres undefined) -56.4%
O=C(O)c1ccc(Nc2cc(Cl)c3nonc3c2[N+](=O)[O-])cc1 -37%
COc1ccc(-n2nc(C(=O)NCC(=O)N3CCC(C)CC3)c3ccccc3c2=O)cc1Cl -59.6%
Cc1c([N+](=O)[O-])cc(C(=O)Nc2ccc3ncccc3c2)cc1[N+](=O)[O-] -55.6%
CCCN1C(=O)c2cc(C(=O)NCCc3cccc(C)c3)ccc2C1O (centres undefined) -42.4%

Activity score, active:
Cc1csc2nc(NC(=O)c3ccccc3)sc(=O)c12 -96.7%
Cc1ccc(-n2ncc3c(NCc4ccccc4)ncnc32)cc1 -189%
O=c1c(-c2ccccc2)c[nH]n1-c1cccc([N+](=O)[O-])c1 -86.9%
Cc1ccc(C(=O)NCCn2cc(SCC(=O)Nc3nnc(C)s3)c3ccccc32)cc1 -109%
O=C(Nc1ccc(F)cc1F)N1CCCCCC1 -86.5%
Cc1nnc(SCc2nc3ccccc3s2)n1-c1ccccc1 -195%
CCOc1ccc(/C=C(/NC(=O)c2ccc(Cl)cc2)C(=O)O)cc1OCC -86.2%
CCn1c(=O)c(C(=O)Nc2ccsc2C(=O)OC)c(O)c2ccccc21 -65.4%
O=C1NC(=S)S/C1=C\c1coc2ccccc2c1=O -85.4%
Cc1ccc(-n2nc3ccc(NC(=S)NC(=O)/C=C/c4ccco4)cc3n2)cc1 -95.8%
COc1cccc2cc(-c3ccccc3)c(=O)oc12 -113%
COc1cc2ccccc2cc1C(=O)Nc1ccc(O)cc1 -138%
COc1ccc(C2=NN(c3nc(-c4ccc(CNC(C)=O)cc4)cs3)C(c3ccco3)C2)cc1 (centres undefined) -77.8%
Cc1cc(OCC(=O)N(C)C2CCCCC2)cc(C)c1Cl -67.7%
COc1ccccc1CCC(=O)Nc1ncc(C)s1 -82.5%
O=C1/C(=C\Nc2ccc(Cl)cc2)CCN1c1ncccn1 -158%
O=C(Nc1ccc2c(c1)OCO2)c1cnccn1 -106%
O=C(Nc1ncc(Cc2cccc(Cl)c2Cl)s1)C1CCCO1 (centres undefined) -128%
COc1ccc2occ(C(=O)c3ccccc3)c2c1 -133%
CCOC(=O)c1ccc(CNCc2ccccc2)cc1 -65.9%
